The other results are listed elsewhere or left out.
Legend:
Assay in all cases: glycan array binding signal (z-score within array); higher = stronger binding
Settings in all cases: glycan notation: IUPAC condensed, linker removed
GalNAc(b1-4)GlcNAc = target: GalNAc(b1-4)GlcNAc
How it was run: (§1)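 Glycan array data were curated from 3228 arrays in the Consortium for Functional Glycomics database and kept only where the protein sequence was available. Glycan names were converted to IUPAC-condensed notation, and columns mapping to the same glycan were averaged. The binding signal is a within-array Z-score, averaged across arrays of the same protein sequence at different concentrations or buffers and across linkers. Negative Z-scores can be read as non-binding.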

[1] = target: GalNAc(b1-4)GlcNAc(b1-2)Man
How it was run: as §1

[2] = target: GalNAc(b1-4)GlcNAc(b1-2)Man(a1-3)[GalNAc(b1-4)GlcNAc(b1-2)Man(a1-6)]Man(b1-4)GlcNAc(b1-4)GlcNAc
How it was run: as §1

[3] = target: GalNAc(b1-4)GlcNAc(b1-3)GalNAc(b1-4)GlcNAc
How it was run: as §1

GalNAc(b1-4)GlcNAc6S = target: GalNAc(b1-4)GlcNAc6S
How it was run: as §1

GalNAc(b1-6)GalNAc = target: GalNAc(b1-6)GalNAc
How it was run: as §1

GalNAc3S(b1-4)GlcNAc = target: GalNAc3S(b1-4)GlcNAc
How it was run: as §1

GalNAc3S(b1-4)GlcNAc3S = target: GalNAc3S(b1-4)GlcNAc3S
How it was run: as §1

[4] = target: GalNAc3S(b1-4)[Fuc(a1-3)]GlcNAc
How it was run: as §1

GalNAc4S6S(b1-4)GlcNAc = target: GalNAc4S6S(b1-4)GlcNAc
How it was run: as §1

GalNAc6S(b1-4)GlcNAc = target: GalNAc6S(b1-4)GlcNAc
How it was run: as §1

Glc(a1-4)Glc = target: Glc(a1-4)Glc
How it was run: as §1

[5] = target: Glc(a1-4)Glc(a1-4)Glc(a1-4)Glc
How it was run: as §1

Glc(a1-6)Glc(a1-6)Glc = target: Glc(a1-6)Glc(a1-6)Glc
How it was run: as §1

[6] = target: Glc(a1-6)Glc(a1-6)Glc(a1-6)Glc
How it was run: as §1

Glc(b1-4)Glc = target: Glc(b1-4)Glc
How it was run: as §1

Glc(b1-6)Glc = target: Glc(b1-6)Glc
How it was run: as §1

GlcA(b1-3)Gal = target: GlcA(b1-3)Gal
How it was run: as §1

GlcA(b1-3)GlcNAc = target: GlcA(b1-3)GlcNAc
How it was run: as §1

GlcA(b1-6)Gal = target: GlcA(b1-6)Gal
How it was run: as §1

[7] = target: GlcA3S(b1-3)Gal(b1-4)GlcNAc(b1-2)Man
How it was run: as §1

[8] = target: GlcA3S(b1-3)Gal(b1-4)GlcNAc(b1-3)Gal(b1-4)Glc
How it was run: as §1

[9] = target: GlcNAc(a1-3)Gal(b1-4)GlcNAc
How it was run: as §1

[10] = target: GlcNAc(a1-4)Gal(b1-3)GlcNAc
How it was run: as §1

[11] = target: GlcNAc(a1-4)Gal(b1-4)GalNAc
How it was run: as §1

[12] = target: GlcNAc(a1-4)Gal(b1-4)GlcNAc
How it was run: as §1

[13] = target: GlcNAc(a1-4)Gal(b1-4)GlcNAc(b1-3)Gal(b1-4)Glc
How it was run: as §1

[14] = target: GlcNAc(a1-4)Gal(b1-4)GlcNAc(b1-3)Gal(b1-4)GlcNAc
How it was run: as §1

[15] = target: GlcNAc(a1-4)Gal(b1-4)GlcNAc(b1-3)Gal(b1-4)GlcNAc(b1-3)Gal(b1-4)GlcNAc
How it was run: as §1

[16] = target: GlcNAc(a1-4)Gal(b1-4)GlcNAc(b1-3)Gal(b1-4)[Fuc(a1-3)]GlcNAc(b1-3)Gal(b1-4)[Fuc(a1-3)]GlcNAc
How it was run: as §1

[17] = target: GlcNAc(a1-6)Gal(b1-4)GlcNAc
How it was run: as §1

[18] = target: GlcNAc(b1-2)Gal(b1-3)GalNAc
How it was run: as §1

[19] = target: GlcNAc(b1-2)Man(a1-3)[GlcNAc(b1-2)Man(a1-6)]Man(b1-4)GlcNAc(b1-4)GlcNAc
How it was run: as §1

[20] = target: GlcNAc(b1-2)Man(a1-3)[GlcNAc(b1-2)Man(a1-6)]Man(b1-4)GlcNAc(b1-4)[Fuc(a1-6)]GlcNAc
How it was run: as §1

[21] = target: GlcNAc(b1-2)Man(a1-3)[GlcNAc(b1-4)][GlcNAc(b1-2)Man(a1-6)]Man(b1-4)GlcNAc(b1-4)GlcNAc
How it was run: as §1

[22] = target: GlcNAc(b1-2)Man(a1-3)[GlcNAc(b1-4)][GlcNAc(b1-2)Man(a1-6)]Man(b1-4)GlcNAc(b1-4)[Fuc(a1-6)]GlcNAc
How it was run: as §1

[23] = target: GlcNAc(b1-2)[GlcNAc(b1-4)]Man(a1-3)[GlcNAc(b1-2)Man(a1-6)]Man(b1-4)GlcNAc(b1-4)GlcNAc
How it was run: as §1

[24] = target: GlcNAc(b1-2)[GlcNAc(b1-4)]Man(a1-3)[GlcNAc(b1-4)][GlcNAc(b1-2)Man(a1-6)]Man(b1-4)GlcNAc(b1-4)GlcNAc
How it was run: as §1

[25] = target: GlcNAc(b1-2)[GlcNAc(b1-4)]Man(a1-3)[GlcNAc(b1-4)][GlcNAc(b1-2)[GlcNAc(b1-6)]Man(a1-6)]Man(b1-4)GlcNAc(b1-4)GlcNAc
How it was run: as §1

[26] = target: GlcNAc(b1-2)[GlcNAc(b1-4)]Man(a1-3)[GlcNAc(b1-4)][GlcNAc(b1-2)[GlcNAc(b1-6)]Man(a1-6)]Man(b1-4)GlcNAc(b1-4)[Fuc(a1-6)]GlcNAc
How it was run: as §1

[27] = target: GlcNAc(b1-2)[GlcNAc(b1-6)]Man(a1-6)[GlcNAc(b1-2)Man(a1-3)]Man(b1-4)GlcNAc(b1-4)GlcNAc
How it was run: as §1

[28] = target: GlcNAc(b1-2)[GlcNAc(b1-6)]Man(a1-6)[GlcNAc(b1-2)Man(a1-3)]Man(b1-4)GlcNAc(b1-4)[Fuc(a1-6)]GlcNAc
How it was run: as §1

[29] = target: GlcNAc(b1-2)[GlcNAc(b1-6)]Man(a1-6)[GlcNAc(b1-4)][GlcNAc(b1-2)Man(a1-3)]Man(b1-4)GlcNAc(b1-4)GlcNAc
How it was run: as §1

GlcNAc(b1-3)Fuc = target: GlcNAc(b1-3)Fuc
How it was run: as §1

GlcNAc(b1-3)Gal = target: GlcNAc(b1-3)Gal
How it was run: as §1

B1: LBL-152 (Laetiporus bicolor), B0D650 (protein)
chain: MSNEYNPPLGIAFRLCGLASDRVLFSRVSPSPEVFHHPKSEVYPDQWFVAIPGSGQNAGCYAIKSKNTGKVLFSRMSPDPRVGHIDGDGKYPDNWFKFEAGSGKYAGYFRLRAVASDTVLVSRTSTGTDTQVINYPATSAKYDDQYFTILFDHHHHHH
B1 was tested, and the “glycan array binding signal (z-score)” value (GalNAc(b1-4)GlcNAc) was -0.134, the “glycan array binding signal (z-score)” value [1] was -0.149 and the “glycan array binding signal (z-score)” value [2] was -0.147. For the same binder, the “glycan array binding signal (z-score)” value [3] was -0.14, the “glycan array binding signal (z-score)” value (GalNAc(b1-4)GlcNAc6S) was -0.154 and the “glycan array binding signal (z-score)” value (GalNAc(b1-6)GalNAc) was -0.155. For the same binder, the “glycan array binding signal (z-score)” value (GalNAc3S(b1-4)GlcNAc) was -0.157, the “glycan array binding signal (z-score)” value (GalNAc3S(b1-4)GlcNAc3S) was -0.163 and the “glycan array binding signal (z-score)” value [4] was -0.15. For the same binder, the “glycan array binding signal (z-score)” value (GalNAc4S6S(b1-4)GlcNAc) was -0.15, the “glycan array binding signal (z-score)” value (GalNAc6S(b1-4)GlcNAc) was -0.16 and the “glycan array binding signal (z-score)” value (Glc(a1-4)Glc) was -0.157. The “glycan array binding signal (z-score)” value [5] was -0.155, the “glycan array binding signal (z-score)” value (Glc(a1-6)Glc(a1-6)Glc) was -0.156 and the “glycan array binding signal (z-score)” value [6] was -0.16. For the same binder, the “glycan array binding signal (z-score)” value (Glc(b1-4)Glc) was -0.149, the “glycan array binding signal (z-score)” value (Glc(b1-6)Glc) was -0.16 and the “glycan array binding signal (z-score)” value (GlcA(b1-3)Gal) was -0.155. For the same binder, the “glycan array binding signal (z-score)” value (GlcA(b1-3)GlcNAc) was -0.15, the “glycan array binding signal (z-score)” value (GlcA(b1-6)Gal) was -0.152 and the “glycan array binding signal (z-score)” value [7] was -0.147. For the same binder, the “glycan array binding signal (z-score)” value [8] was -0.157, the “glycan array binding signal (z-score)” value [9] was -0.147 and the “glycan array binding signal (z-score)” value [10] was -0.146. For the same binder, the “glycan array binding signal (z-score)” value [11] was -0.147, the “glycan array binding signal (z-score)” value [12] was -0.157 and the “glycan array binding signal (z-score)” value [13] was -0.155. The “glycan array binding signal (z-score)” value [14] was -0.157, the “glycan array binding signal (z-score)” value [15] was -0.153 and the “glycan array binding signal (z-score)” value [16] was -0.147. For the same binder, the “glycan array binding signal (z-score)” value [17] was -0.156, the “glycan array binding signal (z-score)” value [18] was -0.152 and the “glycan array binding signal (z-score)” value [19] was -0.156. The “glycan array binding signal (z-score)” value [20] was -0.16, the “glycan array binding signal (z-score)” value [21] was -0.153 and the “glycan array binding signal (z-score)” value [22] was -0.147. For the same binder, the “glycan array binding signal (z-score)” value [23] was -0.159, the “glycan array binding signal (z-score)” value [24] was -0.158 and the “glycan array binding signal (z-score)” value [25] was -0.153. The “glycan array binding signal (z-score)” value [26] was -0.149, the “glycan array binding signal (z-score)” value [27] was -0.153 and the “glycan array binding signal (z-score)” value [28] was -0.147. For the same binder, the “glycan array binding signal (z-score)” value [29] was -0.156, the “glycan array binding signal (z-score)” value (GlcNAc(b1-3)Fuc) was -0.143 and the “glycan array binding signal (z-score)” value (GlcNAc(b1-3)Gal) was -0.16.
